The source of these data is ChEMBL document CHEMBL4888484, “Replenishing the malaria drug discovery pipeline: Screening and hit evaluation of the MMV Hit Generation Library 1 (HGL1) against asexual blood stage Plasmodium falciparum ,using a nano luciferase reporter read-out” (2022).

Out of some 150,000 compounds screened, about 540 (0.36%) showed an effect of 50% or more. Some of the results follow.

This assay has as its system Plasmodium falciparum. In words: Primary screen in NF54 nanoGlo assay, in single point, at 2uM, 72h; a lower Z score goes with more inhibition. In kind it is functional, Erythrocyte. To be noted: timepoint 72 hour.
For `CN(C)c1nc(Cn2cc(F)ccc2=O)ns1`, the “% Inhibition” value is on record as -7% and the Z score worked out at 0.96.
On to `CCOc1ccc(NC(=O)[C@H](CC)n2cnc3oc(C)c(C)c3c2=O)cc1`, for which the “% Inhibition” value was found to be 13% and the Z score is on record as -1.56.
`CC(=O)N(C)C[C@H]1CCN(S(=O)(=O)c2ccccc2)C[C@H]1N(C)C`: the “% Inhibition” value is on record as -3% and the Z score was 0.45.
For `CCc1noc(CC)c1CNC(=O)c1nccn1CC`, the “% Inhibition” value was -5% and the Z score is reported as 0.87.
On the same counts, the results for `Cn1ccc2c(-c3cnn(-c4nnn[nH]4)c3)ccnc21` are -11% and 1.02.
In the case of `c1c(CC2CCCCC2)nnn1[C@H]1CO[C@H]2[C@@H]1OC[C@@H]2NCC1CCCCC1`, the “% Inhibition” value is listed as -16% and the Z score was found to be 2.49.
For `CCn1ncc(C(=O)N2c3ccncc3C[C@@H]2C)c1C`, in that order: -5% and 1.
Consider `Cc1cc(CN(C)Cc2ccc(C)c3ncccc23)n[nH]1`, for which the “% Inhibition” value is 14% and the Z score is on record as -1.88.
On the same counts, the results for `CC1CCN(S(=O)(=O)O[C@H]2CCN(C(=O)OC(C)(C)C)C2)CC1` are 3% and -0.3.
On the same counts, the results for `COc1ccc(CN2C[C@@H]3C[C@H](C2)c2c(-c4ccc(NC(C)=O)cc4)ccc(=O)n2C3)cc1` are -6% and 0.95.
On the same counts, the results for `Cc1ncsc1CCNc1nccc(-c2c(C)nn(C)c2C)n1` are -19% and 1.88.
Consider `CCC(C(=O)Nc1cc(C)on1)N1CCN(C2CCCCNC2=O)CC1` (centres undefined), for which the “% Inhibition” value was found to be 0% and the Z score is 0.
For `CCNC(=O)[C@H](C)NS(=O)(=O)CCOCC1CCCC1`, in that order: -11% and 0.93.
For `COc1ccc(C2=NO[C@@H](Cn3c(Cc4ccc(Cl)cc4)nc4c3c(=O)n(C)c(=O)n4C)C2)cc1`, in that order: -9% and 1.38.
For `CC[C@@H](CO)NC(=O)c1conc1C(C)(C)NC(=O)OC(C)(C)C`, in that order: -1% and 0.19.
For the molecule `COCCN(CCOc1ccccc1F)C(=O)Nc1cnns1`, the “% Inhibition” value is 6% and the Z score is recorded as -0.88.
On the same counts, the results for `Cc1ccc(-c2cccc(C(=O)NCCCn3c(C)cccc3=O)c2)c(C)n1` are -1% and 0.23.
As to `Cc1cc(NS(=O)(=O)c2c(C)c(C)cc3c(C)c(C(=O)N4CCCCC4)oc23)no1`, the “% Inhibition” value is -11% and the Z score is reported as 2.03.
For `COc1ccccc1CNC(=O)C[C@@H](c1ccsc1)c1c[nH]c2cccc(OC)c12`, in that order: 22% and -2.74.
Take `O=C([C@H]1CC2CCC1CC2)N1CCC12CCC2`: the “% Inhibition” value is -40% and the Z score is on record as 4.74.
Take `O=S(=O)(Nc1cccc2[nH]cnc12)c1ccc(Br)o1`: the “% Inhibition” value is reported as -17% and the Z score came out at 3.19.
On the same counts, the results for `COc1cccc(CN2CC(n3cc(C(=O)N(C)C)nn3)C2)c1OC` are 1% and -0.22.
Turning to `COc1ccc2c(c1)N(Cc1ccc(C(=O)N(C)C)[nH]1)C[C@H](C)O2`, the “% Inhibition” value was -1% and the Z score came to 0.16.
For `COC1CCN(S(=O)(=O)NCc2nc3c(F)cccc3[nH]2)CC1`, in that order: -14% and 2.21.
Regarding `Cc1cc(=O)n(Cc2ccccc2)c2c(C)cccc12`, the “% Inhibition” value was 36% and the Z score was -1.17.
On the same counts, the results for `Cn1cc(S(=O)(=O)N2CCCN(C(=O)c3ccc(OC(F)(F)F)cc3)CC2)cn1` are -6% and 1.
On the same counts, the results for `CC(=O)c1cnc(NCCCc2c(C)n[nH]c2C)nc1C` are -3% and 0.45.
For `COC(=O)[C@@H](C)CN(Cc1ccccc1)c1ncccn1`, in that order: -5% and 0.61.
Consider `COCc1nc(C2CC2)nn1-c1ccc(Cl)cc1C`, for which the “% Inhibition” value is -6% and the Z score came to 1.22.
In the case of `C[C@@H](c1nc2ccccc2n1C(F)F)N1CCC(c2nc3ccccc3s2)CC1`, the “% Inhibition” value was -3% and the Z score is listed as 0.45.
On the same counts, the results for `COc1ccc(C(C)(C)CNC[C@H](C)C#N)cc1OC` are -13% and 2.05.
For `CCOc1ccc(NC(=O)CCn2c(C(F)(F)F)nc3cc(S(=O)(=O)N(C)C)ccc32)cc1`, in that order: 1% and -0.11.
Regarding `CN1C(=O)C2(CCN(C(=O)c3cccs3)CC2)C[C@H]1C(=O)NC1CCCC1`, the “% Inhibition” value is recorded as -16% and the Z score is reported as 2.08.
Regarding `CC(C)CCOCC1C[C@]2(CC(C)(c3csc(Nc4ccccc4Cl)n3)OC2=O)C(=O)O1` (some centres undefined), the “% Inhibition” value was determined as 1% and the Z score is recorded as -0.08.
Take `CN1CCC(N(C)C(=O)c2cnc(Cc3c(Cl)cccc3Cl)nc2O)CC1`: the “% Inhibition” value was determined as 2% and the Z score is recorded as -0.31.
For `O=C1O[C@H](C(=O)Nc2ncccc2OCC2CCCCC2)Cc2ccccc21`, in that order: -8% and 1.02.
Regarding `CCCNC(=O)CNc1cncc(OC)n1`, the “% Inhibition” value is -12% and the Z score is given as 1.86.
For `CCn1cc(N(CC(C)C)C(=O)[C@H]2CCCO2)cn1`, in that order: -12% and 1.5.
On the same counts, the results for `COCCN1C(=O)CC(CC(=O)N2CCN(C)C[C@@H]2C(C)C)(c2ccccc2OC)C1=O` (some centres undefined) are 6% and -1.28.
On the same counts, the results for `CCCc1ccc(C(=O)c2sc(-c3c(C)nc4ccccn34)nc2-c2cc(F)c(F)cc2Cl)cc1` are 1% and -0.2.
For `N#Cc1oc2ccccc2c1NC(=O)CN1CCCCC1`, the “% Inhibition” value is reported as -6% and the Z score stood at 1.03.
On the same counts, the results for `Cc1ccc(S(=O)(=O)C(C#N)c2nc3ccccc3nc2N2CC(C)OC(C)C2)cc1` (centres undefined) are -7% and 1.37.
For `CCc1ccc2c(c1)C(c1c(C)[nH]c3ccccc13)(c1c(C)[nH]c3ccccc13)C(=O)N2`, in that order: -30% and 3.52.
Consider `COCCN1CC(=O)N[C@H]2CN(Cc3ncc(C)c(OC)c3C)C[C@@H]2OCc2cccc(c2)Oc2cncc(c2)C1=O`, for which the “% Inhibition” value was determined as 6% and the Z score is given as -0.8.
For `O=C(c1cnn(-c2ccccc2)n1)N1CCC(c2nnc(-c3ccc(F)cc3)o2)CC1`, in that order: 14% and -1.84.
Consider `O=C(CC1(O)CCC1)NC[C@H]1CCCc2ccc(C(=O)O)cc21`, for which the “% Inhibition” value is reported as -10% and the Z score stood at 1.37.
On the same counts, the results for `C[C@@]1(C(=O)O)CCCN1Cc1ccc(Cl)cc1-n1cncn1` are -10% and 1.32.
On the same counts, the results for `Cc1ccc2sc(CS(=O)(=O)c3ccc(N4CCCC4=O)cc3)nc2c1` are -5% and 0.68.
On the same counts, the results for `Cc1cc(C(=O)N2CCC3(CC2)Cc2cccc(c2)Oc2cccc(c2)CCNC3=O)n(C)n1` are -17% and 2.15.
Take `CC1CC(N2CCOCC2)CN1C(=O)c1ncn(C(C)(C)C)n1` (centres undefined): the “% Inhibition” value is -4% and the Z score came out at 0.61.
For `CCc1ccc(C(C)(C)CN=C(N)N(C)C)cc1`, in that order: -10% and 1.14.
On the same counts, the results for `O=C(c1cccc(-n2ccnc2)n1)N1CCO[C@H](c2ccc(F)cc2Cl)C1` are 11% and -1.61.
